Experimental data taken from PubChem BioAssay AID1460 (National Center for Advancing Translational Sciences (NCATS), 2008).
The campaign covered roughly 270,000 compounds. About 5,800 (2.1%) were called active. Inconclusive results, whose numbers are uncertain, are shown with a selection of clear calls. Calls follow the shape of the dose curve; as a rule, active = well fitted inhibition curve with a large enough effect; inconclusive = small, poorly fitted or top-dose-only effect; inactive = flat fitted curve, though single readings scatter. A potency beside an inconclusive call is a rough fit, not a confirmed value.
Also: nearly all actives have a fitted effect of over 55% in size.
Potency is read from the fitted curve at half-maximal effect; tags tell the direction and shape of the fitted curve.

Each molecule was assayed against Microtubule-associated protein tau (Homo sapiens) (UniProt P10636) (assay: qHTS for Inhibitors of Tau Fibril Formation, Thioflavin T Binding). Details: recombinant tau K18 P301L (four-repeat tau fragment), heparin-induced fibrillization, ThT fluorescence; series mostly up to 57.4 µM.
Sequence of UniProt P10636 (P10636 whole entry, looked up, the tested form may be a part): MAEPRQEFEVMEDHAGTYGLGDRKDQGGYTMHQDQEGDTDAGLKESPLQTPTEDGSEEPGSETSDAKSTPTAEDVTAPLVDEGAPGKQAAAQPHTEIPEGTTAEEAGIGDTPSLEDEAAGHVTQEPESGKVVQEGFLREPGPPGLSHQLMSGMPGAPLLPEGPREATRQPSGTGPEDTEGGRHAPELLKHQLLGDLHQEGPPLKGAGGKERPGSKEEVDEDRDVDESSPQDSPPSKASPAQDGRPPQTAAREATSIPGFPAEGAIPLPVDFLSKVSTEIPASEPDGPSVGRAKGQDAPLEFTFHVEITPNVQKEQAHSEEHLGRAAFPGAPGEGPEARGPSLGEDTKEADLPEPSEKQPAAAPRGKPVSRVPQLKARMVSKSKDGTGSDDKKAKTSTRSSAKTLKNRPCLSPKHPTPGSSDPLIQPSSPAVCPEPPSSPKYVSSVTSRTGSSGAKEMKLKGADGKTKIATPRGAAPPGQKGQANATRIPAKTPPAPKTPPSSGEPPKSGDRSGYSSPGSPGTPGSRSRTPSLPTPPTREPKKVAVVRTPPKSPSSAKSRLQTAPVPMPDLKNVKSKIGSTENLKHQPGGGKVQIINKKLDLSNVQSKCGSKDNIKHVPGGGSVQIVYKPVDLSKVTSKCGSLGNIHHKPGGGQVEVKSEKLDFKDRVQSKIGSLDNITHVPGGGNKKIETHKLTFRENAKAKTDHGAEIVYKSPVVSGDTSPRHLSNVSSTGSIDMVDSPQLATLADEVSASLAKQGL
In short: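 K18 P301L tau (15 uM + 0.24 uM Alexa 594-tagged), heparin 20 uM, NaOAc pH 7, 6 h 37 C; ThT 30 uM, 1 h RT, ex 450/em 510 nm.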
In the case of O=C1CSC(c2ccncc2)N1Cc1ccc(F)cc1 (centres undefined), the Potency is reported as inconclusive: 3.55 µM [inhibitor, full curve, poor fit].
In the case of COc1ccc(C(=O)NCc2ccc3c(c2)CCN3C(C)=O)c(OC)c1, the Potency is reported as inconclusive: 0.0708 µM [inhibitor, full curve, poor fit].
COc1ccccc1-c1nnc(NC(=O)c2ccc3ncsc3c2)o1 was tested, and the Potency was inconclusive: 25.1 µM [inhibitor, single point].
With Cc1cccc(C(=O)NC(=S)Nc2ccc(Cc3ccncc3)cc2)c1 the Potency was inconclusive: 17.8 µM [inhibitor, partial curve].
In the case of N/C(=N\OC(=O)c1ccc([N+](=O)[O-])cc1)c1cccnc1, the Potency is reported as inconclusive: 5.01 µM [inhibitor, partial curve].
With CS(=O)(=O)N1CCC(c2noc(-c3ccc(C(F)(F)F)cc3)n2)CC1 the Potency was “inactive”.
O=C1OCCN1/N=C/c1ccc([N+](=O)[O-])o1 was tested, and the Potency was inconclusive: 22.4 µM [inhibitor, partial curve, poor fit].
In the case of CCOc1ccccc1NC(=O)Nc1nnc(N2CCCC(C)C2)s1 (centres undefined), the Potency is reported as “inactive”.
With COc1ccc(C(=O)c2sc3nc4c(c(C(F)(F)F)c3c2N)CN(C(C)=O)CC4)cc1OC the Potency was active: 14.1 µM.
For Cc1ccc2nc(-c3ccc(N4C(=NC(=O)CCC(=O)O)SC5CS(=O)(=O)CC54)cc3)sc2c1 (centres undefined), the Potency was inconclusive: 31.6 µM [inhibitor, single point].
CCOc1ccccc1C1C(C(=O)Nc2ccccc2)=C(C)Nc2nc(SCC(=O)c3ccc(C)cc3)nn21 (centres undefined) was tested, and the Potency was inconclusive: 8.91 µM [activator, partial curve].
O=Cc1c(N2CCN(c3ccccc3)CC2)nc2ccccn2c1=O was tested, and the Potency was inconclusive: 17.8 µM [inhibitor, partial curve].
With CCOC(=O)c1c(C)oc2cc(Br)c(OC(=O)N3CCOCC3)cc12 the Potency was inconclusive: 20 µM [inhibitor, partial curve].
For Cc1ccccc1N1CCN(C(=O)c2ccccc2NC(=O)c2ccccc2C(=O)O)CC1, the Potency was “inactive”.
With CCOC(=O)c1sc(=S)n(-c2ccc(Cl)cc2)c1SC the Potency was “inactive”.
With N#Cc1cccc(N=c2ssnc2Cl)c1 the Potency was active: 11.2 µM.
O=C(COc1ccccc1)Nc1nnc(S(=O)(=O)Nc2ccccc2)s1 was tested, and the Potency was inconclusive: 3.98 µM [inhibitor, partial curve].
With Cc1ccc(-n2cc[nH]c2=S)c(C)c1 the Potency was “inactive”.
For Cc1nc2ccc(-c3nc4cc(N)ccc4o3)cc2[nH]1, the Potency was inconclusive: 15.8 µM [inhibitor, partial curve].
Cc1cccc(OCCc2c(C)[nH]c(=S)[nH]c2=O)c1 was tested, and the Potency was “inactive”.
Fc1ccc(C(c2nnnn2C2CCCC2)N2CCc3ccccc32)cc1 (centres undefined) was tested, and the Potency was inconclusive: 17.8 µM [inhibitor, single point].
In the case of C=C(C)COc1ccc(-c2nc(N)ncc2Oc2ccccc2OC)c(O)c1, the Potency is reported as “inactive”.
CC(=O)N1CN(Cc2ccccn2)Cc2c1sc1c2CCCC1 was tested, and the Potency was inconclusive: 35.5 µM [inhibitor, single point].
In the case of COc1ccc(-c2nnc(SCC(=O)NC(=O)NCc3ccccc3)o2)cc1, the Potency is reported as “inactive”.
Cc1cccc(NC(=O)Cn2c(=O)n(CCCCCC(=O)NCc3ccccc3)c(=O)c3sccc32)c1 was tested, and the Potency was inconclusive: 14.1 µM [activator, partial curve].
With COc1ccc2c(=O)c3c(=O)n(Cc4ccco4)c(-c4ccccc4)nc3oc2c1 the Potency was inconclusive: 20 µM [inhibitor, partial curve].
CC(=O)Nc1ccc(Nc2ncc([N+](=O)[O-])c(Nc3ccc(NC(C)=O)cc3)n2)cc1 was tested, and the Potency was active: 8.91 µM.
In the case of O=C(Cn1cc(/C=N/NC(=O)c2cccc(C(F)(F)F)c2)c2ccccc21)Nc1ccc(F)cc1, the Potency is reported as inconclusive: 31.6 µM [inhibitor, single point].
With Cc1ccc2oc3c(c(=O)c2c1)C(c1cccs1)N(CCCN(C)C)C3=O (centres undefined) the Potency was inconclusive: 28.2 µM [inhibitor, single point].
COc1ccc(Br)cc1/C=N/NC(=O)c1cc(Br)ccc1O was tested, and the Potency was inconclusive: 6.31 µM [inhibitor, partial curve].
Nc1nc(-c2ccc([N+](=O)[O-])cc2)c(C(=O)Nc2ccc(Cl)cc2)s1 was tested, and the Potency was “inactive”.
COC(=O)c1ccc(CSc2nnc(NC(=O)c3cc4c(s3)CCCC4)s2)cc1 was tested, and the Potency was inconclusive: 1.26 µM [inhibitor, full curve].
With O=C(NCc1ccccc1Cl)c1ccccc1NC(=O)c1nsc2ccccc12 the Potency was “inactive”.
With C/C(CC(=O)Nc1ccccc1-c1ccccc1)=N\NC(=O)COc1ccc(C)cc1Br the Potency was inconclusive: 2.82 µM [inhibitor, partial curve, poor fit].
In the case of CC1CCC/C(=N\NC(=S)Nc2ccccc2)C1 (centres undefined), the Potency is reported as inconclusive: 31.6 µM [inhibitor, single point].
COc1ccc(-c2nc(C(=O)Nc3cccc(C(C)=O)c3)nn2-c2ccccc2Cl)cc1 was tested, and the Potency was “inactive”.
CCOC(=O)c1c(C)[nH]c(C(=O)COC(=O)/C=C/c2cccc(OC)c2OC)c1C was tested, and the Potency was “inactive”.
For Oc1ccc2c(c1)OC(c1ccc(O)c(O)c1)C(O)C2 (centres undefined), the Potency was inconclusive: 12.6 µM [inhibitor, partial curve].
NS(=O)(=O)c1ccc(O)c(NC(=O)c2ccc([N+](=O)[O-])o2)c1 was tested, and the Potency was active: 25.1 µM.
In the case of COC(=O)Cc1csc(Nc2ccc(F)c(Cl)c2)n1, the Potency is reported as inconclusive: 35.5 µM [inhibitor, single point].
In the case of CC(=O)Nc1ccc(-c2csc(NC(C)c3ccccc3)n2)cc1 (centres undefined), the Potency is reported as inconclusive: 12.6 µM [inhibitor, partial curve, poor fit].
For CCOC(=O)/C=c1\s/c(=C(\C#N)C(=O)NC)n(-c2ccccc2)c1=O, the Potency was inconclusive: 28.2 µM [inhibitor, partial curve].
In the case of C/C(=N\Nc1ncc(Cl)cc1Cl)c1cccs1, the Potency is reported as inconclusive: 2.82 µM [inhibitor, partial curve].
For CCOC(=O)COc1ccc(-c2nnn(CC(=O)Nc3ccccc3)n2)cc1, the Potency was inconclusive: 3.16 µM [inhibitor, partial curve, poor fit].
